EP4474016A1, “STRATEGIES TO TARGET EXTRACELLULARLY ACCESSIBLE RAS PROTEIN” (Julius-Maximilians-Universität Würzburg, priority 2023, dated 2024)

Target: Ras protein on the extracellular surface of the plasma membrane of human tumour cells (human), P01111
Test: cell-based or functional assay

B1: SFV02_PCC06 anti-Ras bispecific antibody (bispecific antibody)
chain 1: GPGAEVQLVESGGGLVQPGGSLRLSCAASGYSFTGYTMNWVRQAPGKGLEWVALINPYKGVSTYNQKFKDRFTISVDKSKNTAYLQMNSLRAEDTAVYYCARSGYYGDSDWYFDVWGQGTLVTVSSGGGGSGGGGSGGGGSDIQMTQSPSSLSASVGDRVTITCRASQDIRNYLNWYQQKPGKAPKLLIYYTSRLESGVPSRFSGSGSGTDYTLTISSLQPEDFATYYCQQGNTLPWTFGQGTKVEIKGSGGGGGS[letters of human IgG1 Fc with L234A L235A N297A P329A S354C T366W (EU numbers) left out]
chain 2: DKTHTCPPCPAPEAAGGPSVFLFPPKPKDTLMISRTPEVTCVVVDVSHEDPEVKFNWYVDGVEVHNAKTKPREEQYASTYRVVSVLTVLHQDWLNGKEYKCKVSNKALAAPIEKTISKAKGQPREPQVCTLPPSRDELTKNQVSLSCAVKGFYPSDIAVEWESNGQPENNYKTTPPVLDSDGSFFLVSKLTVDKSRWQQGNVFSCSVMHEALHNHYTQKSLSLSPGKGSGGSGSVSSVPTKLEVVAATPTSLLISWDAPAVTVDYYVITYGETGGNSPVQKFEVPGSKSTATISGLKPGVDYTITVYAWGWHGQVYYYMGSPISINYRTGSHHHHHHHH
Q: Which results are given for B1?
A: killing of MM.1S cells + T cells, antibody 3.125 nM with 1.5 uM Lenalidomide: 65%; killing of MV4-11 cells + T cells, antibody 3.75 nM with 0.5% DMSO: 50%; medium maximal killing rate of MM.1S cells + T cells, antibody 25 nM with 1.5 uM Lenalidomide: 80%; medium maximal killing rate of MM.1S cells + T cells, antibody only, highest concentration: 35%; medium maximal killing rate of MV4-11 cells + T cells, antibody 15 nM with 0.5% DMSO: 45%; medium maximum killing rate of MV4-11 cells + T cells, antibody 15 nM only: 25%
